Assay [1] can be described thus: BSK_3C_Proliferation: Cell Proliferation Assessment in the BioMAP Diversity Plus: 3C Assay (AID 2283006; active = hit-call score of the fitted dose curve at least 0.9, where 1 is the maximum; inactive = score below 0.9;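 also: potency may reflect either rise or fall in cell number versus DMSO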). As to conditions: primary human endothelial cells (HUVEC). In outline:
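Proliferation as total protein: sulforhodamine B (0.1%) stain of TCA-fixed subconfluent human umbilical vein endothelial cells, absorbance 560 nm, 48 h after dosing. Activity fitted in both directions against DMSO baseline.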

Read-out in assay [2]: E-selectin (Homo sapiens) (UniProt P16581)
Description: BSK_LPS_Eselectin: BioMAP Diversity Plus: LPS Assay for Eselectin Biomarker Activity (AID 2283077; active = hit-call score of the fitted dose curve at least 0.9, where 1 is the maximum; inactive = score below 0.9). As to conditions: actives raise or lower the signal; primary human HUVEC with PBMC. In outline: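 ELISA readout of E-selectin, 24 h post-dose, HUVEC + PBMC co-culture (LPS system). Gain or loss of signal vs DMSO baseline, bidirectional fit.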

The target in assay [3] is human Peroxisome Proliferator-activated Receptor alpha (PPARa), PPARA (gene 5465) (UniProt Q07869). Description: ATG_PPARa_TRANS: Attagene TRANS-FACTORIAL HepG2 Assay for human Peroxisome Proliferator-activated Receptor alpha (PPARa) (AID 2283001).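 As to AC50: potency for gain of reporter signal over DMSO so agonist or activator.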 The procedure, abridged: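 Cells (HepG2) are transfected with multiple reporter transcription units, exposed to chemical for 24 h, then total RNA is reverse-transcribed and amplified. Labelled products are quantified by capillary electrophoresis; induction is referenced to DMSO.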

Read-out in assay [4]: Monocyte Chemoattractant Protein-1 (MCP1), CCL2 (gene 6347)
Description: BSK_4H_MCP1: BioMAP Diversity Plus: 4H Assay for Monocyte Chemoattractant Protein-1 (MCP1) Biomarker Activity (AID 2283018; active = hit-call score of the fitted dose curve at least 0.9, where 1 is the maximum; inactive = score below 0.9). Conditions: actives raise or lower the signal; primary human endothelial cells (HUVEC). The procedure, abridged:
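ELISA of MCP-1 (CCL2) 24 h after chemical dosing of HUVEC in the BioMAP 4H system. Gain or loss versus DMSO fitted; parallel SRB staining (560 nm) tracked overt cytotoxicity.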

Assay [5] in a line: BSK_3C_Vis: BioMAP Diversity Plus: 3C Assay for Morphology Visualization (AID 2283025; active = hit-call score of the fitted dose curve at least 0.9, where 1 is the maximum; inactive = score below 0.9;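 also: light microscopy image of cell morphology used as background control; fitted both ways so gain or loss versus DMSO counts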). As to conditions: primary human endothelial cells (HUVEC). The procedure, abridged: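 Light-microscopy visualization of HUVEC cultures at 24 h post-treatment, with DMSO as baseline for bidirectional fitting.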
Read-out in assay [6]: urokinase plasminogen activator (uPA), PLAU (gene 5328)
Description: BSK_BE3C_uPA: BioMAP Diversity Plus: BE3C Assay for urokinase plasminogen activator (uPA) Biomarker Activity (AID 2283038; active = hit-call score of the fitted dose curve at least 0.9, where 1 is the maximum; inactive = score below 0.9). As to conditions: actives raise or lower the signal; primary human bronchial epithelial cells. The procedure, abridged:
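ELISA read-out of uPA in human lung primary bronchial epithelial cultures, 24 h post-dosing. Gain or loss of signal fitted bidirectionally relative to DMSO baseline; cytotoxicity checked in parallel cultures via SRB total protein stain.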

Read-out in assay [7]: Monocyte Chemoattractant Protein-1 (MCP1), CCL2 (gene 6347)
Description: BSK_LPS_MCP1: BioMAP Diversity Plus: LPS Assay for Monocyte Chemoattractant Protein-1 (MCP1) Biomarker Activity (AID 2283081; active = hit-call score of the fitted dose curve at least 0.9, where 1 is the maximum; inactive = score below 0.9;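 also: secreted MCP-1 protein quantified by ELISA in culture supernatant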). As to conditions: actives raise or lower the signal; primary human HUVEC with PBMC. The procedure, abridged: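 ELISA read-out of MCP-1 after 24 h chemical dosing of a human umbilical vein endothelial cell/peripheral blood mononuclear cell co-culture stimulated with LPS. Gain or loss of signal fitted relative to DMSO controls.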

Read-out in the next assay: BCL2L11 (gene 10018)
Description: LTEA_HepaRG_BCL2L11: Life Technologies and Expression Analysis (LTEA) Assay for Bcl-2 (BCL2L11) gene using HepaRG (AID 2283473; active = hit-call score of the fitted dose curve at least 0.9, where 1 is the maximum; inactive = score below 0.9). As to conditions: actives raise or lower the signal; mRNA level, 48 h. In outline: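 HepaRG, 48 h exposure, 8-pt half-log series from 100 uM in 0.5% DMSO, duplicates; qRT-PCR (Fluidigm TaqMan) for BCL2L11, housekeeping-normalized; bidirectional curve fit relative to DMSO baseline.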

Assay [8] is described as follows: Tanguay_ZF_120hpf_CIRC_legacy: (Legacy) Oregon State University Tanguay Lab 120 Hour Post-fertilization zebrafish Assay for Circulatory Malformation (AID 2283651). In outline: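 Binary circulatory malformation call at 120 hpf by brightfield imaging of zebrafish larvae; chorion removed at 4 hpf, static exposure from 6 hpf in sealed dark plates at 28C, final DMSO 0.64%; non-mortality endpoints skipped if embryo died.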

Read-out in assay [9]: sulfotransferase (SULT2A), SULT2A1 (gene 6822)
Description: CLD_SULT2A_6hr: CellzDirect (CLD) Gene Expression Assay for sulfotransferase (SULT2A) at 6 hours (AID 2283669).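 Also: hits raise transcript level above the DMSO vehicle baseline.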 In outline: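 Measured 6 h after dosing, SULT2A1 mRNA in human hepatocyte lysates was quantified by S1 nuclease protection with chemiluminescent detection. Increases fitted against 0.2% DMSO vehicle baseline; phase-contrast cytotoxicity recorded yes/no.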

Read-out in assay [10]: Glyceraldehyde-3-phosphate dehydrogenase (Homo sapiens) (UniProt P04406)
Description: CLD_GAPDH_6hr: CellzDirect (CLD) Gene Expression Assay for Baseline Control (Glyceraldehyde 3-phosphate dehydrogenase) at 6 hours (AID 2283681).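 Also: active means increased signal relative to DMSO vehicle.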 In outline: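 GAPDH baseline-control readout from qNPA (S1 nuclease digestion, probe hybridization, chemiluminescence) in lysates of cultured human hepatocytes harvested 6 h post-dosing. Chemicals tested at multiple concentrations versus 0.2% DMSO vehicle; microscopy-based cytotoxicity flagged yes/no.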

For assay [11], the target named is Retinoic acid receptor RXR-alpha (Homo sapiens) (UniProt P19793). Description: ATG_RXRa_TRANS: Attagene TRANS-FACTORIAL HepG2 Assay for human Retinoid X Receptor alpha (RXRa) (AID 2283012). The procedure, abridged:
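TRANS format reporting activity of exogenous RXRa-Gal4 chimera in transiently transfected HepG2, 24 h exposure. Reporter transcripts quantified by RT-PCR with capillary electrophoresis, with gain of signal scored relative to DMSO.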

Assay [12] concerns the target human Peroxisome Proliferator-activated Receptor delta (PPARd), PPARD (gene 5467) (UniProt Q03181). Description: ATG_PPARd_TRANS: Attagene TRANS-FACTORIAL HepG2 Assay for human Peroxisome Proliferator-activated Receptor delta (PPARd) (AID 2283002). The procedure, abridged: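 Measured quantity: GAL4-UAS reporter transcript induction in HepG2 after 24 h chemical dosing, with NR-Gal4 chimeras supplied by transient transfection. Detection by RT-PCR and capillary electrophoresis; upward fit against DMSO.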

Assay [13] in a line: TOX21_PR_BLA_Followup_Agonist_viability: Viability Assessment in the Tox21 HEK293 Progesterone Receptor (PR) Agonism Beta-lactamase Follow-Up Assay (AID 2283935).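 Also: signal loss means lower viability so actives are cytotoxic.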 In outline:
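Run multiplexed with the beta-lactamase FRET read, this endpoint measures ATP by CellTiter-Glo luminescence (30 min, room temperature). PR-UAS-bla HEK293T cells received compound 6 hr after plating and were then incubated 16 hr at 37C in 2% stripped serum.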

We go through 5 compounds from PubChem BioAssay (EPA / NIEHS).

In general, AC50 refers to the concentration giving half of the maximal activity seen.

For some of these results: Shown are results outside the selection of hits, which stands elsewhere. Results filed as inconclusive are left out. The list shows a part of the results, in another mix than the full data. Activity calls are given as the source filed them. The calls were made as follows, unless noted: active = hit-call score of the fitted dose curve at least 0.9, where 1 is the maximum; inconclusive = response in the unintended direction; inactive = score below 0.9.

Chain of UniProt Q07869 (Q07869 whole entry, looked up): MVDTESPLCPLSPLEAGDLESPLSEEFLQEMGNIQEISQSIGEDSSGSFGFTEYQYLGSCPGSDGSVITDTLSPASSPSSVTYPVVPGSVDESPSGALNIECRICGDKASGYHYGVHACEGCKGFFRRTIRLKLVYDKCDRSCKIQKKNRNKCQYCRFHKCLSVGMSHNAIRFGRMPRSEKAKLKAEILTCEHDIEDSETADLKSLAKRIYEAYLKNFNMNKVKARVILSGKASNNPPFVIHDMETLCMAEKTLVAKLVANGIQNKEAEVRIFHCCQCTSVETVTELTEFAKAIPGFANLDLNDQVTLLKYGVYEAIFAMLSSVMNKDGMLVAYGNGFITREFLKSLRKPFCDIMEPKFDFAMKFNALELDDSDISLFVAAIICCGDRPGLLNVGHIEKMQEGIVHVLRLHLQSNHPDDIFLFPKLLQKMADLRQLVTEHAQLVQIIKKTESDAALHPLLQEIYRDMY
Chain of UniProt P16581 (P16581 whole entry, looked up): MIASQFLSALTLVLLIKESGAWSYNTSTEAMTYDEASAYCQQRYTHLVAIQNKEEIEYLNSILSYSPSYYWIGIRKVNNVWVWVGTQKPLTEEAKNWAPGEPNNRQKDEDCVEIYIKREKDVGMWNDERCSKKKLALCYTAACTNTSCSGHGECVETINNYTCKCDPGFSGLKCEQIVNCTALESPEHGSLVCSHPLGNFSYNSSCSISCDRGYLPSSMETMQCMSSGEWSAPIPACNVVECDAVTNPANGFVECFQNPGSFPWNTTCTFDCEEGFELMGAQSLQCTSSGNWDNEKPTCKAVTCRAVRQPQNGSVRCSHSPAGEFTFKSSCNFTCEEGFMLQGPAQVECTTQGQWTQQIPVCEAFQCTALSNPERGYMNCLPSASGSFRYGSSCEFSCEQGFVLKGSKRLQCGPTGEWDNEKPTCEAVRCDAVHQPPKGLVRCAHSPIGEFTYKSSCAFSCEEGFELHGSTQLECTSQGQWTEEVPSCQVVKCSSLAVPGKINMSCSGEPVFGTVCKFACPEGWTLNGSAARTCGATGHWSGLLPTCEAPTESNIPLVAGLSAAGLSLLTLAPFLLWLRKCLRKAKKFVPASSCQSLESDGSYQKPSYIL
Chain of UniProt P19793 (P19793 whole entry, looked up, the tested form may be a part): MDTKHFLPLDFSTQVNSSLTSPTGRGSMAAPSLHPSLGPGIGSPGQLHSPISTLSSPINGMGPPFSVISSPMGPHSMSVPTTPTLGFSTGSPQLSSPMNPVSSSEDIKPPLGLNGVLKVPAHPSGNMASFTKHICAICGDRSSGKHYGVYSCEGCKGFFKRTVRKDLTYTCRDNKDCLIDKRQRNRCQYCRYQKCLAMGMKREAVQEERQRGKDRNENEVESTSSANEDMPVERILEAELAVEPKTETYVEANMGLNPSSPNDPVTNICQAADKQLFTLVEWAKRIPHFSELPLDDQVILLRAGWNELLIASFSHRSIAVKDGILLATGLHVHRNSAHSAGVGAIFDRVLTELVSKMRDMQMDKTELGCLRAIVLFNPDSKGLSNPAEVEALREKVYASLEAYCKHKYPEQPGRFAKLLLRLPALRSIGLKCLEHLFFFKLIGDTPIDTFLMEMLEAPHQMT
Chain of UniProt P04406 (P04406 whole entry, looked up): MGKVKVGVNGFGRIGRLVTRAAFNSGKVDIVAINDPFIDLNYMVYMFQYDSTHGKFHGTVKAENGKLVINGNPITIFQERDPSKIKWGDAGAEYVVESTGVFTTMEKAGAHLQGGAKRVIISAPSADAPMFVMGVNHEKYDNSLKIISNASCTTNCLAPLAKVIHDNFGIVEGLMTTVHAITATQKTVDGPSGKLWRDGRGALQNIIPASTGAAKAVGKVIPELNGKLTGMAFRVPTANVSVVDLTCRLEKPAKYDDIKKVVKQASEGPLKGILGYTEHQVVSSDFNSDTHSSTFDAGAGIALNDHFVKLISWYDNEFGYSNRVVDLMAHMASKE
Chain of UniProt Q03181 (Q03181 whole entry, looked up, the tested form may be a part): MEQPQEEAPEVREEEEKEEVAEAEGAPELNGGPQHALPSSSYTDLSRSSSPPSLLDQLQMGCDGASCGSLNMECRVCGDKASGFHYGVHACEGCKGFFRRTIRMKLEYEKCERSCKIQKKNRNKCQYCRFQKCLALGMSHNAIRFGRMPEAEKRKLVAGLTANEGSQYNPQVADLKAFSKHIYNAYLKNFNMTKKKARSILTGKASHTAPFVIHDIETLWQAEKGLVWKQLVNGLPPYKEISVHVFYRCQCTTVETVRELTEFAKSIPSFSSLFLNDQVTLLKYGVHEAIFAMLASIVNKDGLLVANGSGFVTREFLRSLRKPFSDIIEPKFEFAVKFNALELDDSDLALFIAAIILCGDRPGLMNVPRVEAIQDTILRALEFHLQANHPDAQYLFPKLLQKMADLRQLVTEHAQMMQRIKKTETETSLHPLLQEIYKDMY

With `CCCCCCCCCCCCCCO`, the figures for the AC50 in [1] and in assay [2] were active: 28100 nM and active: 36500 nM, respectively.

As for `O=C(Nc1ccc([N+](=O)[O-])cc1Cl)c1cc(Cl)ccc1O`, the result (in assay [3]; with BCL2L11 (gene 10018); in assay [8]; in assay [9]; in assay [10]) was inactive. For the same compound, the half-maximal activity concentration (AC50) is active: 154 nM in assay [4], active: 1230 nM in assay [5], active: 2620 nM in assay [6] and active: 504 nM in assay [7].

Regarding `O=C(CC(=O)c1ccccc1)c1ccccc1`, the call in assay [3] was inactive.

In the case of `CCCCCCCCCC(=O)O`, the AC50 in [3] is active: 20700 nM. In addition, the result in assay [11] was inactive.

For the compound `C=C1CC[C@H](O)C/C1=C/C=C1\CCC[C@]2(C)[C@@H]([C@H](C)/C=C/[C@H](C)C(C)C)CC[C@@H]12`, the result in [12] and in assay [13] was inactive.
